Measurements as given in ChEMBL document CHEMBL4888484, “Replenishing the malaria drug discovery pipeline: Screening and hit evaluation of the MMV Hit Generation Library 1 (HGL1) against asexual blood stage Plasmodium falciparum ,using a nano luciferase reporter read-out” (2022).
The whole screen tested about 150,000 compounds, of which about 540 (0.36%) showed an effect of 50% or more. The list shows a part of the results.

The molecules below were run on Plasmodium falciparum (assay: Primary screen in NF54 nanoGlo assay, in single point, at 2uM, 72h; a lower Z score goes with more inhibition). Details: timepoint 72 hour.
Type: functional, Erythrocyte

| Compound | % Inhibition [%] | Z score |
| --- | --- | --- |
| CCN(CCC1CCN(CC(=O)Nc2cc(F)ccc2F)CC1)CC1CC1 | 2 | -0.26 |
| O=C(Cc1ccsc1)NC[C@H](O)c1ccc2c(c1)CCO2 | -13 | 1.98 |
| O=c1c2cnccc2ncn1Cc1n[nH]c2c1CCC2 | -12 | 1.67 |
| CCOC(=O)N1CCC(NC(C)C(O)c2ccc(F)c(F)c2)CC1 (stereo not given) | -5 | 0.42 |
| COc1ccccc1C1(CNC(=O)[C@@H]2CC=CCC2)CCOCC1 | -8 | 1.35 |
| FC(F)(F)C1=N[C@H](C(F)(F)F)N=C(c2ccccc2)N1 | 7 | -1.06 |
| CN(Cc1ccccc1)[C@H]1CS(=O)(=O)C[C@@H]1S(=O)(=O)c1cccs1 | 1 | -0.15 |
| CC(C)N1C(=O)CO[C@H](c2ccc(NC(=O)c3ccc(C#N)cc3)cc2)[C@H]1CO | -11 | 1.66 |
| CNC(=O)[C@@H]1C[C@H](Oc2ccccc2)CN1C1CCN(Cc2ccccn2)CC1 | -3 | 0.31 |
| CC1C(Cc2ccccc2)CCN1C(=O)[C@@H](C)N (stereo not given in full) | -17 | 2.02 |
| CC(O)c1ccc(C2(CNC(=O)C3CCOC3)CCCC2)s1 (stereo not given) | -18 | 3.42 |
| CN1CC2(CN(S(=O)(=O)c3c(F)cc(F)cc3F)C2)OC1=O | -3 | 0.39 |
| CCN(CC)c1ccc(C(=O)Nc2ccc(Oc3ncccc3C#N)cc2C)cn1 | 6 | -0.95 |
| C[C@H](NC(=O)c1nc2c(s1)CCCC2)c1nnc(N)s1 | 1 | -0.22 |
| O=C(NCC(F)(F)C1(O)CCCCC1)c1ccoc1 | -17 | 1.81 |
| CCOC(=O)[C@@H](N)Cc1ccc(C)cc1 | 31 | -3.46 |
| COc1ccc(F)cc1CNS(=O)(=O)C[C@@H]1C[C@H]2COC[C@@H]2O1 | -3 | 0.46 |
| O=S(=O)([C@H]1CCN(CCc2ccccc2F)C1)N1CCCC1 | -11 | 1.13 |
| O=c1oc2ccccc2n1CCN1CCN(c2nccc3ccccc23)CC1 | -5 | 0.59 |
| COc1ccc(-c2ccccc2NC(=O)NC[C@H]2CCCCN2C)cc1 | 8 | -1.07 |
| CCOc1cc(N2CC[C@H](c3cnccn3)C2)ncn1 | 3 | -0.26 |
| COc1ccc(CCc2n[nH]c(NC(=O)CCc3c(C)noc3C)n2)cc1OC | 21 | -2.38 |

| Compound | % Inhibition [%] | Z score |
| --- | --- | --- |
| O=C(CCc1nc2ccccc2[nH]1)N1CCC(c2nc3ccccc3o2)CC1 | -8 | 0.69 |
| CC(=O)NCC1=CCN(CC(=O)N[C@@H](C)c2ccc(C)cc2)CC1 | 3 | -0.39 |
| O=C(CCCc1nnc2ccccn12)N1CCc2ccccc2C1 | 28 | -3.21 |
| CONC(=O)NCCc1csc(C)n1 | -11 | 1.11 |
| Cc1ccc2ncc(CN3CCN(C)S3(=O)=O)cc2c1 | -5 | 0.76 |
| CC(C)NC(=O)N(Cc1cc(-c2ccco2)on1)C(C)C | -1 | 0.13 |
| CCCNC(=O)Nc1ccc(NC(=O)N2CCC[C@H](C(=O)NCC)C2)cc1 | -20 | 2.59 |
| Cc1cc(NC(=O)NC2CCCC2)no1 | -37 | 4.39 |
| COc1cccc(CNC(=O)C[C@H](C)CC2=Nc3ccccc3S(=O)(=O)N2)c1 | 2 | -0.21 |
| Cc1oc(-c2ccc3ccccc3c2)nc1CN1CC[C@H](O)[C@@H](O)C1 | 4 | -0.59 |
| Cc1ccccc1Oc1cc(NC(=O)c2nn3c(C(F)(F)F)cc(-c4ccccc4)nc3c2Br)cc(Oc2ccccc2C)c1 | 0 | 0.06 |
| c1ccc(N2CCO[C@@H](CN3CCC(n4cncn4)CC3)C2)cc1 | -9 | 1.47 |
| COc1ccc(F)c(F)c1CN(C)Cc1cc(C2CC2)[nH]n1 | -2 | 0.37 |
| Cc1[nH]c2ccc(CNC(=O)[C@H]3CCCN(Cc4ccco4)C3)cc2c1C | 1 | -0.22 |
| Cc1c(C#N)c(NC(=O)CN2CCCC2c2nc3ccccc3s2)n(CC2CCCO2)c1C (stereo not given) | -13 | 1.91 |
| CC(C)(C)OC(=O)N1CC2(CCCC2)[C@H]1C(=O)NCCCCO | -7 | 0.88 |
| O=C(NCCc1ccccc1)N1CC[C@H](Cc2nnc(C3CC3)[nH]2)C1 | -5 | 0.89 |
| C[C@H](NCc1csc(N(C)C)n1)c1ccc(N2CCCC2=O)cc1 | 4 | -0.54 |
| COc1ccccc1CN1C=C(C(=O)NC[C@H]2CCCO2)C(C)=NS1(=O)=O | -1 | 0.08 |
| CCc1sc(C(=O)Nc2cccc(OCC(=O)N3CCCC3)c2)cc1C | -11 | 2.08 |
| Cc1cccc(NC(=O)[C@@H]2COCC(=O)N2Cc2cccs2)c1 | -2 | 0.23 |
| O=C(Nc1cccn2cnnc12)NC1CCCCC1 | -5 | 0.99 |

| Compound | % Inhibition [%] | Z score |
| --- | --- | --- |
| Nc1nnc(Cc2nc(C3CC3)nn2-c2ccccn2)s1 | -1 | 0.23 |
| Cc1ccc(NC(=O)Cn2cnc3nc(N4CCC[C@H](C(=O)NC5CC5)C4)sc3c2=O)cc1 | -31 | 2.74 |
| Cc1cccc(OCC(=O)Nc2nc3ccc(Cl)cc3o2)c1 | -2 | 0.41 |
| CCc1ncc(Cn2cccc(F)c2=O)o1 | 0 | 0.04 |
| COCC(=O)N[C@H]1CN(Cc2ccc(Cl)s2)C[C@@H]1C1CC1 | 0 | 0 |
| CCCCNC(=O)[C@H](C#N)c1nc(C)cc(C)n1 | 1 | -0.09 |
| Cc1ccc(CNC(=O)N2Cc3c(C)nn(-c4ccccc4)c3-n3cccc3[C@H]2c2ccc(F)cc2)cc1 | 1 | -0.22 |
| O=C(O)[C@H]1CCCN1S(=O)(=O)c1ccc2c(c1)CCCC2 | -2 | 0.33 |
| FC(F)n1ccnc1CN[C@@H]1CCC[C@H]1c1ccccc1 | -3 | 0.49 |
| CCCN1CC[C@H](Nc2cnc3ccccc3n2)C1 | -14 | 2.25 |
| O=C(Nc1cncc(Br)c1)c1cc(N2CCNC2=O)c(F)cc1F | -18 | 2.68 |
| Cc1ccc(-c2nc(CNC(=O)c3cccnc3)[nH]c2-c2ccccn2)cc1 | 2 | -0.22 |
| COc1ccc(NC(=O)N2CC(c3nc4cc(C)ccc4[nH]3)C2)cc1 | 3 | -0.43 |
| Cc1nc(NC(=O)c2ccc(C)c(Oc3ccncc3)c2)n[nH]1 | -2 | 0.24 |
| O=C(C[C@H]1CCC(F)(F)C1)NCc1nc2ccccn2c1Cl | -12 | 1.44 |
| Fc1ccc(CN2CCC[C@H](CN3CCOCC3)C2)c(Cl)c1 | -12 | 2.35 |
| CC(=O)Nc1ccc(NC(=O)Nc2cccc(C3OCCO3)c2)cc1 | -32 | 3.77 |
| O=C(Nc1cccnc1-n1cc(Cl)cn1)[C@H]1CC(=O)N(c2ccccc2)C1 | 6 | -0.99 |
| CCNC(=O)c1cc(NCCc2nccn2Cc2ccccc2)ccn1 | -9 | 0.95 |
| CCn1cc(S(=O)(=O)NCCc2cn(CC(C)C)c3ncccc23)cn1 | -2 | 0.3 |
| CCc1ccccc1NC(=O)CN(C)Cc1nc(-c2ccco2)no1 | -2 | 0.25 |
| CC1CN(C)CCC1N(C)C(=O)C1CC12CCCc1ccccc12 (stereo not given) | -7 | 0.7 |

| Compound | % Inhibition [%] | Z score |
| --- | --- | --- |
| Cc1n[nH]c(CN2CCC3(CCC(=O)N(Cc4ccccn4)C3)CC2)n1 | 0 | -0.04 |
| Cc1cnc(C(C)N2CCCC(C)(F)C2)o1 (stereo not given) | 1 | -0.17 |
| c1ccc2c(c1)OC[C@H](CNCc1cccc3cn[nH]c13)O2 | -8 | 0.86 |
| COc1ccc(NC(=O)CN2CN(c3ccccc3)C3(CCN(C(=O)COc4ccccc4)CC3)C2=O)cc1 | -6 | 1.03 |
| COCCc1noc(-c2ccc3oc(C)cc3c2)n1 | -15 | 1.48 |
| Cc1cnn(CCNc2nc3ccccc3o2)c1 | -6 | 0.84 |
| CCOc1ncccc1-c1nccnc1N1CCCC1 | 1 | -0.12 |
| CCc1noc(C(=O)N2CCN(C)[C@H](C(C)(C)C)C2)n1 | -11 | 1.61 |
| Cc1ccc(CC(=O)N2CCC3(CC2)CN(C)C[C@@H]3c2noc(C3CC3)n2)cc1 | -20 | 2.35 |
| Cc1occc1C(=O)NC[C@](C)(NC(=O)c1ccoc1C)C(C)C | -13 | 1.71 |
| CCc1nnc(CN(CC)C(=O)c2cnc(-c3cccnc3)nc2O)o1 | -6 | 0.5 |
| Cc1ccc2c(C(=O)N3CCN(C4CCCCC4)CC3)cc(NC(=O)C(C)C)cc2n1 | -11 | 1.55 |
| CC(C)(C)c1nn(-c2ccccc2)cc1C(=O)N1CCN(C[C@H]2COCCO2)CC1 | -10 | 1.36 |
| Cc1noc(C)c1Cn1sc2ccccc2c1=O | -6 | 0.84 |
| CC[C@@H](C#N)OC(=O)Cc1ccc(F)cc1 | -14 | 2.17 |
| Cc1noc(-c2cccn2Cc2c(F)cccc2Cl)n1 | 4 | -0.69 |
| Cc1cc(C)n(CCN(C)c2cc(C3CC(O)C3)ncn2)n1 (stereo not given) | -1 | 0.11 |
| COc1ncccc1C(=O)N1CCc2nc(NC(=O)c3ccco3)sc2C1 | -12 | 1.75 |
| COCCNC(=O)c1ccc(OC)cc1OC1CCN(Cc2ccc3ccccc3c2)CC1 | 0 | 0.02 |
